Measurements reported in PubChem BioAssay AID995 (National Center for Advancing Translational Sciences (NCATS), 2007).
About 710 (0.99%) of roughly 72,000 compounds were called active. The shares of active, inactive and inconclusive entries below differ from those in the screen. Calls come from the whole dose curve; as a rule, active = well fitted inhibition curve with a large enough effect; inconclusive = small, poorly fitted or top-dose-only effect; inactive = no such curve, though single readings can be large or run the other way. Potencies of inconclusive entries are doubtful fits and often do not repeat.

assay: qHTS Assay for Inhibitors of the ERK Signaling Pathway using a Homogeneous Screening Assay; details: HEK293-V1b, vasopressin-stimulated pERK AlphaScreen; activity, negative = inhibition: at 57.5 µM (top of the series) unless noted; note: nearly all actives have a fitted effect of over 55% in size
In short: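 Phosphorylated ERK1/2 detected via AlphaScreen bead proximity in lysates of V1b-expressing HEK293 cells given 25 nM vasopressin for 5 min after 30 min compound exposure (37 °C). AC50 from Hill equation; basal DMSO 0%, vasopressin 100%.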
% is set by controls: 0 for no effect and ±100 for the full control effect; potency is the fitted concentration of half-maximal effect; tags give direction and shape of the fitted curve.

Potency, inconclusive:
COc1ccc(CCNC(=O)CCSc2nc(-c3ccco3)cc(C(F)(F)F)n2)cc1OC 12.6 µM [inhibitor, partial curve]
Cn1c(=O)[nH]c(=O)c2c1nc(Br)n2CC(O)COCc1ccccc1 (configuration not stated) 12.6 µM [inhibitor, partial curve]
O=C(c1ccco1)N1CCC2(CC1)CN(c1ccccn1)C2 15.8 µM [inhibitor, single point]
O=C(Cn1nnc(-c2ccncc2)n1)N(C1CCCCC1)C1CCCCC1 15.8 µM [inhibitor, partial curve]
CN(CCC#N)C(=O)CSc1ncnc2sc(-c3ccccc3)cc12 39.8 µM [inhibitor, single point]
Cc1cccc(CNc2nc(-c3ccc4c(c3)OCO4)nc3ccccc23)c1 20 µM [inhibitor, partial curve]
Nc1c(C(=O)NCc2ccco2)sc2nc3c(cc12)C(=O)CCC3 39.8 µM [inhibitor, single point]
CN1CCN(C2=C(Cl)C(=O)N(Cc3ccccc3)C2=O)CC1 39.8 µM [inhibitor, single point]
CN(C)C(=O)CSc1nnc(-c2cc(-c3cccs3)nc3ccccc23)o1 1.58 µM [inhibitor, full curve, poor fit]
CC(C)CC(OC(=O)c1cccs1)C(=O)NCc1ccco1 (configuration not stated) 39.8 µM [inhibitor, single point]
C[C@@H](CCc1ccc(O)cc1)NCCc1ccc(O)c(O)c1 31.6 µM [inhibitor, single point]
CCn1c(SCC(=O)c2[nH]c(C)c(C(C)=O)c2C)nnc1-c1cccs1 25.1 µM [inhibitor, single point]
CCOC(=O)c1cnc2c(Cl)c(Cl)ccc2c1N1CCN(C)CC1 31.6 µM [inhibitor, single point]
CCc1ccc(Cn2nnc(C(=O)Nc3cccc(C)c3)c2N)cc1 31.6 µM [inhibitor, single point]
O=C(c1ccc2c(c1)OCO2)[C@@H]1[C@@H]2C(=O)N(C3CCCCC3)C(=O)[C@@H]2C2c3ccccc3C=CN21 (some centres not stated) 39.8 µM [inhibitor, single point]
O=C(Cc1ccc(Cl)cc1)Nc1ccc(N2CCN(C(=O)c3ccco3)CC2)cc1 20 µM [inhibitor, single point]
NC(=O)c1ccccc1-c1nc(-n2ccnc2)c2ccccc2n1 39.8 µM [inhibitor, single point]
CN(CC(=O)Nc1ccc2c(c1)OCCO2)S(=O)(=O)c1ccc(Br)s1 15.8 µM [inhibitor, partial curve]
Cc1ccc2c(CC(=O)Nc3nc(C)cs3)coc2c1 31.6 µM [inhibitor, single point]
COc1ccc(-c2cc(C(F)(F)F)n3nc(C(=O)O)cc3n2)cc1OC 1 µM [inhibitor, single point]
CC(=O)c1ccc(Oc2ncnc3sccc23)c(CN2CCOCC2)c1 25.1 µM [inhibitor, single point]
CC(C)CN(CC#N)CC(C)C 1.58 µM [inhibitor, full curve, poor fit]
COc1ccc(CCn2c(=N)c(C(=O)N3CCN(C)CC3)cc3c(=O)n4ccccc4nc32)cc1 10 µM [inhibitor, partial curve]
Cc1cc(NC(=O)Nc2ccc3c(ccn3C)c2)sn1 31.6 µM [inhibitor, single point]
COc1ccc(S(=O)(=O)N2CCCC2C(=O)Nc2ccc(C(C)=O)cc2)cc1 (configuration not stated) 39.8 µM [inhibitor, single point]
C[C@@H]1CNCCN1S(=O)(=O)c1cccc2cnccc12 79.4 µM [inhibitor, partial curve, poor fit]
O=C(Nc1ccncc1)c1cc([N+](=O)[O-])ccc1Cl 39.8 µM [inhibitor, single point]
O=C(c1ccccc1)c1ccc2nc(N3CCCCC3)c3nncn3c2c1 10 µM [inhibitor, partial curve]
C=CC(C)(C)c1[nH]c2ccccc2c1C1=C(O)C(=O)C(c2c[nH]c3c(CC=C(C)C)cccc23)=C(O)C1=O 31.6 µM [inhibitor, partial curve, poor fit]
COc1cccc(-c2nc(N3CCN(C)CC3)c3ccccc3n2)c1 25.1 µM [inhibitor, single point]
CNC1=C(Br)C(=O)c2ccncc2C1=O 39.8 µM [inhibitor, single point]
COc1cc(SC)ccc1C(=O)Nc1ccc2c(c1)CCN2S(C)(=O)=O 20 µM [inhibitor, partial curve]
COc1cc(OC)c(C(=O)Nc2ccc(N(C)C)cc2)cc1OC 25.1 µM [inhibitor, single point]
COc1ccccc1N1CCN(c2nc(N)c(C#N)c(CC#N)c2C#N)CC1 39.8 µM [inhibitor, partial curve]
COc1ccc(CNc2ncnc3ccc(-c4cccnc4)cc23)c(OC)c1 12.6 µM [inhibitor, partial curve]
Cn1c(=O)[nH]c(=O)c2c1nc(N1CCOCC1)n2CC(O)COc1ccc2ccccc2c1 (configuration not stated) 1 µM [inhibitor, full curve, poor fit]
O=C(c1ccc(Br)o1)N(Cc1ccccc1)c1ccccn1 39.8 µM [inhibitor, single point]
Cc1ccc2[nH]c3c(c2c1)CCc1cn[nH]c1-3 15.8 µM [inhibitor, partial curve]
CCOC(=O)COc1ccc(N)cc1CC(NC(C)=O)(C(=O)OCC)C(=O)OCC 0.0794 µM [inhibitor, full curve, poor fit]
COc1cccc(-c2nc(N(C)C)c3ccccc3n2)c1 6.31 µM [inhibitor, full curve]
O=C(CSc1nc(-c2ccco2)cc(C(F)(F)F)n1)N1CCN(Cc2ccccc2)CC1 25.1 µM [inhibitor, single point]
O=C(C1COc2ccccc2O1)N1CCN(c2ccccc2F)CC1 (configuration not stated) 20 µM [inhibitor, partial curve, poor fit]
COCCOC(=O)c1[nH]c2c(c1C)C(=O)CC(c1ccco1)C2 (configuration not stated) 39.8 µM [inhibitor, single point]
O=C(Nc1ccc2c(c1)OCO2)N1CCN(C/C=C/c2ccccc2)CC1 39.8 µM [inhibitor, single point]
N#Cc1c(N)sc2c1CCCCCC2 20 µM [inhibitor, partial curve]
O=c1cc(-c2ccccc2Cl)c2c([nH]1)CCC2 31.6 µM [inhibitor, single point]
Cc1ccc(-c2nn3c(C)nnc3c3ccccc23)cc1S(=O)(=O)NCc1ccco1 15.8 µM [inhibitor, partial curve, poor fit]

Potency, inactive:
O=C1c2ccccc2-c2c1nc1c([n+]2[O-])CCCC1
COc1cccc(NC(=O)CNC(=O)c2ccccc2)c1
Clc1ccc(OCc2nc(-c3ccccn3)no2)c(Br)c1
Cc1noc(C)c1CSCC(=O)N1CCN(c2ccc(F)cc2)CC1
COc1ccccc1-n1cc(C(=O)NCC(=O)N2CCN(c3ccccn3)CC2)c2ccccc2c1=O
COC(=O)[C@H](NC(=O)c1cc(-c2ccccc2)nc2ccccc12)c1ccccc1
N[C@@H](C(=O)O)c1ccc(C(=O)O)cc1
Cc1nnc(NC(=O)C2CCN(c3nnnn3-c3ccccc3)CC2)s1
Cc1nc(C)c(C(=O)C2=C(O)C(=O)N(CCCn3ccnc3)C2c2ccccc2)s1 (configuration not stated)
COc1ccc2[nH]cc(CCNc3ncncc3-c3ccc(C(=O)N(C)C)cc3)c2c1
Nc1c2ccccc2nc2ccccc12
c1ccc(C2=Nn3c(nnc3-c3ccncc3)SC2)cc1
Oc1ccccc1CNc1nc2ccccc2n1CCN1CCCCC1
CC(=O)n1c2ccccc2c2c(C#N)c(N3CCCCC3)sc21

Potency, active:
COc1ccc(Nc2ccc3c(c2)=NC2(CCCCC2)[N+]=3[O-])cc1 15.8 µM
CC(c1ccccc1)N1CC(C(=O)N2CCN(c3ccccc3)CC2)CC1=O (configuration not stated) 25.1 µM
COc1ccc(C2=NOC(C(=O)Nc3cc(Br)ccc3O)C2)cc1OC (configuration not stated) 10 µM

activity, negative = inhibition, inconclusive:
CCOC(=O)Cn1c(CN(C)Cc2ccccc2)nc2c1c(=O)n(C)c(=O)n2C -32% [inhibitor]

activity, negative = inhibition, inactive:
O=C(Nc1ccc(-c2cn3ccccc3n2)cc1)c1cc(Br)ccc1O 10% [at 11.5 µM]
CC(=O)OC[C@@H]1O[C@@H](O/N=C2/C[C@@H](O)[C@@H](O)[C@@H]3[C@@H]4C(=O)N([C@@H](C)c5ccccc5)C(=O)[C@H]4CC[C@H]23)[C@H](OC(C)=O)[C@H](OC(C)=O)[C@@H]1OC(C)=O -6.16% [at 11.5 µM]
